Laboratory results published in US20030224453A1, “Structural models for cytoplasmic domains of transmembrane receptors” (priority 1998, published 2003).
No constants are given. Whether binding was seen depends on the method and setting. Some results given as binding are weak or reduced against the parent protein; the word gives no strength.

Protein sequences, listed by entry. Tags and fused reporters are not part of them. Residues count along the entry.
UniProt P21333, residues 2-2647: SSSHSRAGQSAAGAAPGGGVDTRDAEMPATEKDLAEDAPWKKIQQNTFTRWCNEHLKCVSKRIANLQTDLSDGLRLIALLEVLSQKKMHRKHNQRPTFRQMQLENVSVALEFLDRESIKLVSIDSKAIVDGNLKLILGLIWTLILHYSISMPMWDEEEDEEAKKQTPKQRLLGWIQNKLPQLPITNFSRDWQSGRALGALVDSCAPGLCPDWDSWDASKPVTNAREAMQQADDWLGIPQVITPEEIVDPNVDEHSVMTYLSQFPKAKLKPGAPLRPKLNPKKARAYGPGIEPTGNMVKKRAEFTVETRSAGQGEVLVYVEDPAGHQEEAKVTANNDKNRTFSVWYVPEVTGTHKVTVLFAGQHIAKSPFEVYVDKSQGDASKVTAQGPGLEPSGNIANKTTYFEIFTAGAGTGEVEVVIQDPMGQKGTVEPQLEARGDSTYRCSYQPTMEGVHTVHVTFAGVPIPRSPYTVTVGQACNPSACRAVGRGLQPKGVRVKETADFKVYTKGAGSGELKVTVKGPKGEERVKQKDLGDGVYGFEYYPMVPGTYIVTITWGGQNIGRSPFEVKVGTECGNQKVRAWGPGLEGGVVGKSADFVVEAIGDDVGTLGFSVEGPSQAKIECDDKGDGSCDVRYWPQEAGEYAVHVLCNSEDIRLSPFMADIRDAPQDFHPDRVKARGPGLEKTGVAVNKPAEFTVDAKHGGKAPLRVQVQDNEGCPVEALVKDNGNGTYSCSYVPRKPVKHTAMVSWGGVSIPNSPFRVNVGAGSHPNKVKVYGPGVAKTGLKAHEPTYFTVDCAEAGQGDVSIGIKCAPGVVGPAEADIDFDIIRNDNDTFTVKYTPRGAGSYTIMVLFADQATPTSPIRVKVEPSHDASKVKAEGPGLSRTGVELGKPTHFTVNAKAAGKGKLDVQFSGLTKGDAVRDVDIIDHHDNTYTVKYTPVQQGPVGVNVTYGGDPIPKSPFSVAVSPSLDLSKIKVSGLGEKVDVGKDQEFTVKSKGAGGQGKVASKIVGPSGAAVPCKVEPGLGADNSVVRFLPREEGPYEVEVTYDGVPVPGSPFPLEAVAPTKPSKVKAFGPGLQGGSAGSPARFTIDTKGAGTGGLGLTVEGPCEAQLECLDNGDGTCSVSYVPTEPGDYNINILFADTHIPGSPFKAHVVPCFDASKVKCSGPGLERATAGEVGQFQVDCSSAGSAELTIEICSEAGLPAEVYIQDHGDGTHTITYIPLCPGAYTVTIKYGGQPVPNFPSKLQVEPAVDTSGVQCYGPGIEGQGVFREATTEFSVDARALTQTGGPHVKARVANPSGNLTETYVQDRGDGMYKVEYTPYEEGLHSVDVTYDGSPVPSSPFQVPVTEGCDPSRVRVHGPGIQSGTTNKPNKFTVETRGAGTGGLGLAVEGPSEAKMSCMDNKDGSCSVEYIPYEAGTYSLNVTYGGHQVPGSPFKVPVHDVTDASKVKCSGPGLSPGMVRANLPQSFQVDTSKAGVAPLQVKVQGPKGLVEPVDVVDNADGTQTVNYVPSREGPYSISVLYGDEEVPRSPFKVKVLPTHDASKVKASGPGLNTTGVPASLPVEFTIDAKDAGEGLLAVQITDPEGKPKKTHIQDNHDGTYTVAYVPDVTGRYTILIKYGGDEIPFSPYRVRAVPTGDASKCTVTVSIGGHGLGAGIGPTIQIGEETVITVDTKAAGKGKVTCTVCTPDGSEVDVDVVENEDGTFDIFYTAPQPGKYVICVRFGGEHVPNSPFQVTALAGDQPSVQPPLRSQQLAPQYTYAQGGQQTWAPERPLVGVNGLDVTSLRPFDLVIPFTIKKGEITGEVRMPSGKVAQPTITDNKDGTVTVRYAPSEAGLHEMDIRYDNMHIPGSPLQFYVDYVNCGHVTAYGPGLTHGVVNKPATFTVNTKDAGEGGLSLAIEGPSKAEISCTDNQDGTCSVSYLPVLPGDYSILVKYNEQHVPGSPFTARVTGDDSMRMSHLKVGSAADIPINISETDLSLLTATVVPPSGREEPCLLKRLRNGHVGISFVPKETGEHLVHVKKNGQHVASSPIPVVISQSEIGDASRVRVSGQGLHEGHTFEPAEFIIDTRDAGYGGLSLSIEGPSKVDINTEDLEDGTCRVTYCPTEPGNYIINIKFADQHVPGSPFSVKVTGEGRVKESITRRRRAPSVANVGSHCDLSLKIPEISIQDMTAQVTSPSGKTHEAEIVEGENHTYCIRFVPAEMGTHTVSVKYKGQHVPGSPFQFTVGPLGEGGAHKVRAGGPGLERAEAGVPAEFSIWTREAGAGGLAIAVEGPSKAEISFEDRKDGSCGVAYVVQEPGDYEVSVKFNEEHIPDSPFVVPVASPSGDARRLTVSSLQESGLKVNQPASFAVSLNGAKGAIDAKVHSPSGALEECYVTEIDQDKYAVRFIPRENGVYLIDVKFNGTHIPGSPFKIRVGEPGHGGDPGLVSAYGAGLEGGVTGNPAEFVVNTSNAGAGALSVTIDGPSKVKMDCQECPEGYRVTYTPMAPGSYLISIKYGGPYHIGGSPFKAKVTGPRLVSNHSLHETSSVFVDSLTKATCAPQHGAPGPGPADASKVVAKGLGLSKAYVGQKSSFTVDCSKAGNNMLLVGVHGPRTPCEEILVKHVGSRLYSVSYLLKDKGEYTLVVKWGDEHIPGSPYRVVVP
UniProt Q9Y490: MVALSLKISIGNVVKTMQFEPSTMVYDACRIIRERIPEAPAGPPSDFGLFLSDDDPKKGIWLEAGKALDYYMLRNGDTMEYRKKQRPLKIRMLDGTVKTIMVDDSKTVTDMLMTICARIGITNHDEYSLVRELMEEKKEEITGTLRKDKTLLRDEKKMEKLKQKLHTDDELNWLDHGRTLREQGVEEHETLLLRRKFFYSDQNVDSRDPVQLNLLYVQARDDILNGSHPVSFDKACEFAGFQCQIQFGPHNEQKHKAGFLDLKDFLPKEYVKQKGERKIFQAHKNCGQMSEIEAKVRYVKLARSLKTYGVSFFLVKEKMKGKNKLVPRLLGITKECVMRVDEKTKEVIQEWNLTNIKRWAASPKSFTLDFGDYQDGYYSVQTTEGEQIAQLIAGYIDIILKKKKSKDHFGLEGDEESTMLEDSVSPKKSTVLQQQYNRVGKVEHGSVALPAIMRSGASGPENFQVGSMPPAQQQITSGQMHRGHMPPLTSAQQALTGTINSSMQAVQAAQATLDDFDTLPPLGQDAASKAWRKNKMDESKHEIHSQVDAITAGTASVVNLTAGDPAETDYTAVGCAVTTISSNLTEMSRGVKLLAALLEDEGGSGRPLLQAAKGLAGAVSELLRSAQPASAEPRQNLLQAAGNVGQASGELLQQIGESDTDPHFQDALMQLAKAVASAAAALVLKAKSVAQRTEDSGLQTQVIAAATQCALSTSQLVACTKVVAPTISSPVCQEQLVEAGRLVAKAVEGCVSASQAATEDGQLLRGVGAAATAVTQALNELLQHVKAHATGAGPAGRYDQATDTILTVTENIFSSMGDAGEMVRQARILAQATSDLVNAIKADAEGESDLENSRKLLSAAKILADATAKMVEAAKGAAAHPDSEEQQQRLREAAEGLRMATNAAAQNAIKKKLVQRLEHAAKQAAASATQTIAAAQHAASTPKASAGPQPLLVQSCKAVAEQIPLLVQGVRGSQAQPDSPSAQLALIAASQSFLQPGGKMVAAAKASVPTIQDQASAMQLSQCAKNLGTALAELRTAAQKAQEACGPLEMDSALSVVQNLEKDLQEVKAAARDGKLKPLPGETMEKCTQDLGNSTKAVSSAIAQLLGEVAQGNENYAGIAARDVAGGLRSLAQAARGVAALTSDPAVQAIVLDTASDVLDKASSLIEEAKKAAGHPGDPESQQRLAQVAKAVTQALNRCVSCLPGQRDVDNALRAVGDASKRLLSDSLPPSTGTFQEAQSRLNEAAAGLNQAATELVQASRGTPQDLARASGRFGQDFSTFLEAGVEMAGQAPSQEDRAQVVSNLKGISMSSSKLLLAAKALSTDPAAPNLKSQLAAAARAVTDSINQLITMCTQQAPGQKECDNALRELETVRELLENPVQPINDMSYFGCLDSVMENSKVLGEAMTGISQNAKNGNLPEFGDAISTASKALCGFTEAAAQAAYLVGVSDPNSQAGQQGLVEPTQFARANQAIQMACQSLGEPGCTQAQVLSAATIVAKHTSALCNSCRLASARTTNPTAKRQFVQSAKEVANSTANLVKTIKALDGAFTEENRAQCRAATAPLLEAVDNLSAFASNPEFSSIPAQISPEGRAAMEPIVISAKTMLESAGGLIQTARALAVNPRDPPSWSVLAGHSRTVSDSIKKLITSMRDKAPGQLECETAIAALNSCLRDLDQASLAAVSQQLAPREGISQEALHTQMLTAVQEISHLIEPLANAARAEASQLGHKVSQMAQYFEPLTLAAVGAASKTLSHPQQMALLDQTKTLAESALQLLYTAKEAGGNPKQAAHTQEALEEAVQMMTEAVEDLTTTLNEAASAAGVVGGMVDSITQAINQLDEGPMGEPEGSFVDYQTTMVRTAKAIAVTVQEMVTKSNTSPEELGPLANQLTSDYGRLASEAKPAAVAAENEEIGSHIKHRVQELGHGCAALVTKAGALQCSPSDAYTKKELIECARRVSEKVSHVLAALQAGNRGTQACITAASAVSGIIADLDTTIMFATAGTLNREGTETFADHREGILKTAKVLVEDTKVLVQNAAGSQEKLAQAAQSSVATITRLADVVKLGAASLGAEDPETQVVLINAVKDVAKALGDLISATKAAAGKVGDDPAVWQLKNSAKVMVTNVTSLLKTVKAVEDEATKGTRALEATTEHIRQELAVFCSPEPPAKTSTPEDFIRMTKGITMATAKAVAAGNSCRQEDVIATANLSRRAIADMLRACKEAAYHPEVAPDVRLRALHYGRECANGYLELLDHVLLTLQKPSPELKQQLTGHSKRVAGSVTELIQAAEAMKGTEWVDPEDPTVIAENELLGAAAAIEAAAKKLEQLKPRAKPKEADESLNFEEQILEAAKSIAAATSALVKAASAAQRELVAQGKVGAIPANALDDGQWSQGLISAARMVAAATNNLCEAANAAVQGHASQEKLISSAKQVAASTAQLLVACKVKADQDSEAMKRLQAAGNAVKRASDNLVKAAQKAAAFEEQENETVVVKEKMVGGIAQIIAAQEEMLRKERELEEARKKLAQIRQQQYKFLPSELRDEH

Key:
[1] = biological target: T1, filamin (ABP-280) (Homo sapiens, UniProt P21333); assay: purified human uterus filamin on model protein resin, Coomassie gel
[2] = biological target: T2, talin (Homo sapiens, UniProt Q9Y490); assay: purified human platelet talin on model protein resin, Coomassie gel
[3] = biological target: T2, talin; assay: affinity chromatography: model protein on Ni2+ resin, biotinylated human platelet lysate, blot
[4] = biological target: T1, filamin (ABP-280); assay: as above
[5] = biological target: T2, talin; assay: affinity chromatography: model protein on Ni2+ resin, biotinylated human platelet lysate
[6] = biological target: T1, filamin (ABP-280); assay: as above
[7] = biological target: T1, filamin (ABP-280); assay: affinity chromatography: model protein on Ni2+ resin; lysates of human platelets, Jurkat and HT1080 cells
[8] = biological target: T2, talin; assay: as above

Row | Binder | binding [1] | binding [2] | binding [4] | also measured
1 | G4-β1A-Y788A cytoplasmic domain model protein (designed binder) GSSHHHHHHSSGLVPRGSHMKLEALEGRLDALEGKLEALEGKLDALEGGGGKLLMIIHDRREFAKFEKEKMNAKWDTGENPIAKSAVTTVVNPKYEGK |  |  |  | binding [5]: no binding; binding [6]: no binding
2 | G3-β1A cytoplasmic domain model protein (designed binder) GSSHHHHHHSSGLVPRGSHMKLEALEGRLDALEGKLEALEGKLDALEGGGKLLMIIHDRREFAKFEKEKMNAKWDTGENPIYKSAVTTVVNPKYEGK |  |  | binds | 
3 | G4-β1D cytoplasmic domain model protein (designed binder) GSSHHHHHHSSGLVPRGSHMKLEALEGRLDALEGKLEALEGKLDALEGGGGKLLMIIHDRREFAKFEKEKMNAKWDTQENPIYKSPINNFKNPNYGRKAGL | binds | binds |  | binding [8]: binds
4 | G2-β1A cytoplasmic domain model protein (designed binder) GSSHHHHHHSSGLVPRGSHMKLEALEGRLDALEGKLEALEGKLDALEGGKLLMIIHDRREFAKFEKEKMNAKWDTGENPIYKSAVTTVVNPKYEGK |  |  | binds | 

Second part, led by results:

Row | binding [1] | binding [2] | binding [4] | Binder | also measured
5 | binds | binds | binds | G4-β1A cytoplasmic domain model protein (designed binder) GSSHHHHHHSSGLVPRGSHMKLEALEGRLDALEGKLEALEGKLDALEGGGGKLLMIIHDRREFAKFEKEKMNAKWDTGENPIYKSAVTTVVNPKYEGK | binding [3]: binds
6 | binds |  |  | G4-β7 cytoplasmic domain model protein (designed binder) GSSHHHHHHSSGLVPRGSHMKLEALEGRLDALEGKLEALEGKLDALEGGGGKLSVEIYDRREYSRFEKEQQQLNWKQDSNPLYKSAITTTINPRFQEADSPTL | binding [7]: binds
7 | binds | binds |  | G1-β1D cytoplasmic domain model protein (designed binder) GSSHHHHHHSSGLVPRGSHMKLEALEGRLDALEGKLEALEGKLDALEGKLLMIIHDRREFAKFEKEKMNAKWDTQENPIYKSPINNFKNPNYGRKAGL | binding [8]: binds
8 | binds |  |  | G1-β7 cytoplasmic domain model protein (designed binder) GSSHHHHHHSSGLVPRGSHMKLEALEGRLDALEGKLEALEGKLDALEGKLSVEIYDRREYSRFEKEQQQLNWKQDSNPLYKSAITTTINPRFQEADSPTL | binding [7]: binds
